Test results published in PubChem BioAssay AID504332 (National Center for Advancing Translational Sciences (NCATS), 2011).
The campaign covered roughly 350,000 compounds. About 31,000 (8.9%) were called active. The inconclusive results got no clear call from the source; some entries with a clear call stand among them for comparison. Calls come from the whole dose curve; as a rule, active = well fitted inhibition curve with a large enough effect; inconclusive = small, poorly fitted or top-dose-only effect; inactive = no such curve, though single readings can be large or run the other way. Potencies of inconclusive entries are doubtful fits and often do not repeat.

Biological target: Histone-lysine N-methyltransferase EHMT2 (Homo sapiens) (UniProt Q96KQ7)
UniProt Q96KQ7, sequence (Q96KQ7 whole entry, looked up): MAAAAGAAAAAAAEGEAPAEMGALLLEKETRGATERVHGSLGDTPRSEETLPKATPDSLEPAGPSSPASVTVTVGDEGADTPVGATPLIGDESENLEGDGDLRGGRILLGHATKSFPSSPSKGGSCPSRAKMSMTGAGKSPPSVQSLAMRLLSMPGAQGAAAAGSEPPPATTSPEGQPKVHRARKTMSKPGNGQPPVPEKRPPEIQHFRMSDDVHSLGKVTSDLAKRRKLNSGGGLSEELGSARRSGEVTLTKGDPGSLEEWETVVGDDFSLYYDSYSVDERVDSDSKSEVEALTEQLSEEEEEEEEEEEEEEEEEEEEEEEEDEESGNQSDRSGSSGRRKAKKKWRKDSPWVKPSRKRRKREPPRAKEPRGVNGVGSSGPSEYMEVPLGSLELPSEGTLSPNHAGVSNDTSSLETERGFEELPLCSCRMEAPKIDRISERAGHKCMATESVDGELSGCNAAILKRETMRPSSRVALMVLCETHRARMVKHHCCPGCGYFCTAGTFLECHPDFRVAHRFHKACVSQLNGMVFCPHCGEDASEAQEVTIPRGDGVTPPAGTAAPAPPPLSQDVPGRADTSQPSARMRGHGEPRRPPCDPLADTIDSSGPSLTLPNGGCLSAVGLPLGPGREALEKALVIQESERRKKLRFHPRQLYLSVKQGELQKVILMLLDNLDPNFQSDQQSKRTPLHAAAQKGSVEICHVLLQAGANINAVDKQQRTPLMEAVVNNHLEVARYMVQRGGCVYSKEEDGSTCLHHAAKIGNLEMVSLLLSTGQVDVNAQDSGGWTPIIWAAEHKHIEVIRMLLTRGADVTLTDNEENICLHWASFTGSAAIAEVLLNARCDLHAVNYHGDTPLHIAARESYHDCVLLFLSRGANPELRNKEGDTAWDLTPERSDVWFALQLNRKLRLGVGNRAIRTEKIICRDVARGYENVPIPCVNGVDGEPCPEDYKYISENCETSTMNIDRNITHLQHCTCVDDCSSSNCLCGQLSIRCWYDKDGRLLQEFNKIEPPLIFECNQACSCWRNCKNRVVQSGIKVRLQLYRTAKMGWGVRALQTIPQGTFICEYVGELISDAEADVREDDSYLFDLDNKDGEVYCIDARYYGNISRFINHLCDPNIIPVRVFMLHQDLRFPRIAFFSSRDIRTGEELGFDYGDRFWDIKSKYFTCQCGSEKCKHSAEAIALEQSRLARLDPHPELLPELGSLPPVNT
Experiment: qHTS Assay for Inhibitors of Histone Lysine Methyltransferase G9a; note: nearly all actives have a fitted effect of over 75% in size
Settings: G9a H3K9 monomethylation, AlphaScreen, 2 h; activity, negative = inhibition: at 59 µM (top of the series) unless noted
Method in brief: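 G9a (20 nM) was preincubated 15 min with compound, then reacted 2 h at room temperature with 500 nM biotin-H3K9 peptide and 20 µM SAM. Monomethyl-H3K9 detected by AlphaScreen using anti-H3K9me1 antibody.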
% is set by controls: 0 for no effect and ±100 for the full control effect; potency is the fitted concentration of half-maximal effect; tags give direction and shape of the fitted curve.

| Structure (SMILES) | Potency | activity, negative = inhibition |
| --- | --- | --- |
| CCOc1ccc(N2C(=O)C(Cl)=C(N3CCOCC3)C2=O)cc1 | active: 50.1 µM | – |
| COc1ccccc1OCCNC(=O)C1CC(=O)N(Cc2ccc(C)cc2)C1 (configuration not stated) | inconclusive: 50.1 µM [inhibitor, partial curve, poor fit] | – |
| CC(C)c1ccccc1-n1c(SCc2cc(=O)oc3ccc4ccccc4c23)nnc1-c1cccnc1 | inconclusive: 28.2 µM [inhibitor, single point] | – |
| CCCn1nnnc1NCc1c(Cl)cccc1Cl | – | inactive: -6.39% [at 102 µM] |
| COc1ccc(CC(=O)Nc2cccc(SC)c2)cc1OC | inconclusive: 0.178 µM [inhibitor, partial curve, poor fit] | – |
| COC(=O)C(C)n1cnc2c(nnn2-c2ccccc2)c1=O (configuration not stated) | active: 89.1 µM | – |
| CCNC(=O)CC1C(=O)N(c2ccc(F)cc2)C(=O)N1CCc1sccc1C (configuration not stated) | inconclusive: 79.4 µM [inhibitor, single point] | – |
| O=C(NNC(=S)NCC1CCCO1)c1cc(Br)ccc1Cl (configuration not stated) | – | inactive: 29% [at 102 µM] |
| CC(C)n1nc(C(=O)Nc2ccccc2N2CCOCC2)c2ccccc2c1=O | inconclusive: 3.55 µM [inhibitor, full curve] | – |
| CCOC(=O)CSc1nc(N)c(C(=O)Nc2ccc(N(C)C)cc2)s1 | active: 15.8 µM | – |
| O=C(NNc1nc2ccc(F)cc2s1)c1cccc(F)c1 | inconclusive: 70.8 µM [inhibitor, partial curve, poor fit] | – |
| Cc1ccc(C)c(OCc2nnc(N)s2)c1 | inconclusive: 35.5 µM [inhibitor, single point] | – |
| COc1ccc2c(c1)OCC(Cc1ccc(O)c(OC)c1)C2=O (configuration not stated) | – | inactive: -16.8% [at 2.33 µM] |
| COc1cc(C(=O)OCc2ccc([N+](=O)[O-])cc2)cc(OC)c1OC | – | inactive: 14.7% [at 102 µM] |
| CCOC(=O)c1c(NC(=O)c2cc(OC)c(OC)c(OC)c2)sc2c1CCCC2 | – | inactive: -3.56% |
| Cc1cc(C)cc(NC(=O)c2ccc([N+](=O)[O-])o2)c1 | inconclusive: 28.2 µM [inhibitor, full curve] | – |
| O=C(CCn1cnc2ccccc21)N/N=C/c1ccc(O)cc1 | – | inactive: 23.5% |
| CCOc1ccccc1CNC(=O)c1oc2c(c1C)-c1[nH]ncc1CC2 | inconclusive: 31.6 µM [inhibitor, single point] | – |
| CN(C)N=Nc1ccc2nc[nH]c2c1 | active: 1.78 µM | – |
| Cc1ccc(C(=O)c2c3ccc(N)cc3nn2CCC(N)=O)cc1 | active: 44.7 µM | – |
| Cc1ccc(N2NC3(CCN(C(N)=O)CC3)NC2=O)cc1 | active: 0.708 µM | – |
| CC(C)c1cc(C(=O)NNC(=S)NC2CCCCC2)cs1 | inconclusive: 31.6 µM [inhibitor, full curve] | – |
